Data taken from patent US20230312722A1 (NONA BIOSCIENCES SUZHOU, published 2023).
Residue numbers refer to the chain shown, from its start. Numbers in names are those of the source. Read-outs that look alike come from different tables or passages of the source. Values belong to the binder of their own block, whether it stands above or below them.

Tests used:
[1] = target: T1, human B7H4 on the cell surface (human, UniProt Q7Z7D3 25-282); assay: FACS, SK-BR-3 cells
T1 construct: whole, on cells; also called CHOK1/hu B7H4; B7H4 on SK-BR-3
T1 sequence (looked up): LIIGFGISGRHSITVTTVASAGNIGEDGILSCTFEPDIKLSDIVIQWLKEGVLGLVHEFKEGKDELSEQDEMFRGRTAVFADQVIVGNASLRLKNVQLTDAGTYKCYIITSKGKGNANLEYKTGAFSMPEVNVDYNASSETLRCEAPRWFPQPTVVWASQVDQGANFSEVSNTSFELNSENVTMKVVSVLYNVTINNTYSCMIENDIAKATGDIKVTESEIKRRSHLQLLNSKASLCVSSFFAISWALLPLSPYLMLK
Experimental: (§1) This example is intended to investigate the in vitro binding activity of anti-human B7H4 H2L2 monoclonal antibody to human/cynomolgus monkey/mouse B7H4. Antibody binding experiments at the cellular level were performed using CHOK1 cell line overexpressing human B7H4 (CHOK1/hu B7H4, Harbour BioMed), CHOK1 cell line overexpressing cynomolgus monkey B7H4 (CHOK1/cyno B7H4, Harbour BioMed), CHOK1 cell line overexpressing mouse B7H4 (CHOK1/m B7H4, Harbour BioMed) and SK-BR-3 cell line (ATCC® HTB-30) highly expressing human B7H4. Briefly, CHOK1/hu B7H4 cells, CHOK1/cyno B7H4 cells, CHOK1/m B7H4 cells or SK-BR-3 cells were digested and resuspended with PBS containing 2% BSA. The cell density was adjusted to 1×10⁶ cells/mL. The cells were seeded in a 96-well V-bottom plate (Corning, #3894) at 100 μL/well, followed by the addition of test antibodies diluted in a 3-fold concentration gradient of 2 times the final concentration, each at 100 μL/well. The cells were incubated at 4° C. for 2 h away from light. Thereafter, the cells in each well were rinsed twice with 100 μL of pre-cooled PBS containing 2% BSA, and centrifuged at 500 g at 4° C. for 5 min, and then the supernatant was discarded. Then 100 μL of a fluorescent secondary antibody (Alexa Fluor 488-conjugated AffiniPure Goat Anti-Human IgG, Fcγ Fragment Specific, Jackson, #109-545-098, 1:500 diluted) was added to each well. The plate was incubated away from light at 4° C. for 1 h. The cells in each well were washed twice with 100 μL of pre-cooled PBS containing 2% BSA, and centrifuged at 500 g at 4° C. for 5 minutes, and then the supernatant was discarded. Finally, the cells in each well were resuspended with 200 μL of pre-cooled PBS containing 2% BSA, and the fluorescence signal values were read using an ACEA Novocyte3000 flow cytometer.

[2] = target: T2, cynomolgus monkey B7H4 on the cell surface (cynomolgus monkey, UniProt A0A2K5U6P5 25-282); assay: FACS, CHOK1/cyno B7H4 cells
T2 construct: whole, on cells; also called CHOK1/cyno B7H4
T2 sequence: T1 sequence (looked up) with L53I, F242L, S252A
Experimental: as §1

[3] = target: T3, mouse B7H4 on the cell surface (mouse, UniProt Q7TSP5 25-257); assay: FACS, CHOK1/m B7H4 cells
T3 construct: whole, on cells; also called CHOK1/m B7H4
T3 sequence (looked up): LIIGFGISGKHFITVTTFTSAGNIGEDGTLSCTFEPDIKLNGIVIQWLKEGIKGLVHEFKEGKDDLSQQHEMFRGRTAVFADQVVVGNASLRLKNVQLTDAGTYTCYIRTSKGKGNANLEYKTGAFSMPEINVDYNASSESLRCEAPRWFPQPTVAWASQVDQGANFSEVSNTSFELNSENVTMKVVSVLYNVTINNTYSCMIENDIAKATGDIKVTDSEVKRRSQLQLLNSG
Experimental: as §1

CD3 on human T cells = CD3 on human T cells (human, UniProt P07766; P04234; P09693); assay: FACS on human T cells; EC50 printed as n.d., curve still rising at 100 nM
Chain of CD3 on human T cells (P07766 23-207 limits assumed, chain 1 of 3): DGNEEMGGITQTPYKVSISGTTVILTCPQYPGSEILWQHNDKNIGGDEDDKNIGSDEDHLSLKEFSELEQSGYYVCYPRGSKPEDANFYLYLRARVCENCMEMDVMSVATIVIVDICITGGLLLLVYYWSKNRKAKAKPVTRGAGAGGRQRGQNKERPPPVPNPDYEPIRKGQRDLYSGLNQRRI
Chain of CD3 on human T cells (P04234 22-171 limits assumed, chain 2 of 3, further chain): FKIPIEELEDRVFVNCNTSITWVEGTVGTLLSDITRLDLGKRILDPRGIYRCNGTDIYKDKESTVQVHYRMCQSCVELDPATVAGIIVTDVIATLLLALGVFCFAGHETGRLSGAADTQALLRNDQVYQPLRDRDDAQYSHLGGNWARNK
Chain of CD3 on human T cells (P09693 23-182 limits assumed, chain 3 of 3, further chain): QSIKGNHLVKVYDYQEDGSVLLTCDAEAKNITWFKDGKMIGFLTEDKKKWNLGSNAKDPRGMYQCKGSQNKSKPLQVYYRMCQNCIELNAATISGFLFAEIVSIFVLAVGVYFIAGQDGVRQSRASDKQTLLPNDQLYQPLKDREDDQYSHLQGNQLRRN
Experimental: SK-BR-3 cells were digested. T cells were isolated using the human T cell isolation kit (Miltenyi, #130-096-535) as described in the method of the instruction, and resuspended with PBS containing 2% BSA. The cell density was adjusted to 1×10⁶ cells/mL. The cells were seeded in a 96-well V-bottom plate (Corning, #3894) at 100 μL/well, followed by the addition of test antibodies diluted in a 3-fold gradient at a concentration that was 2 times the final concentration, each at 100 μL/well. The cells were incubated at 4° C. for 2 h away from light. Thereafter, the cells in each well were rinsed twice with 100 μL of pre-cooled PBS containing 2% BSA, and centrifuged at 500 g at 4° C. for 5 min, and then the supernatant was discarded. Then each well was added with 100 μL of fluorescent secondary antibody (Alexa Fluor 488-conjugated AffiniPure Goat Anti-Human IgG, Fcγ Fragment Specific, Jackson, #109-545-098, diluted in a 1:500 ratio), and the plate was incubated away from light at 4° C. for 1 h. The cells in each well were washed twice with 100 μL of pre-cooled PBS containing 2% BSA, and centrifuged at 500 g at 4° C. for 5 minutes, and then the supernatant was discarded. Finally, the cells in each well were resuspended with 200 μL of pre-cooled PBS containing 2% BSA, and the fluorescence signal values were read using an ACEA Novocyte3000 flow cytometer.

[4] = target: T2, cynomolgus monkey B7H4 on the cell …; assay: FACS, CHOK1/cyno B7H4 cells; remark: listed apart in the source
Experimental: as §1, with “Then 100 μL of a fluorescent secondary antibody (Alexa Fluor 488-conjugated AffiniPure Goat Anti-Human IgG, Fcγ Fragment Specific, Jackson, #109-545-098, 1:500 diluted) was added to each well. The plate was incubated away from light at 4° C. for 1 h. The cells in each well were washed twice with 100 μL of pre-cooled PBS containing 2% BSA, and centrifuged at 500 g at 4° C. for 5 minutes, and then the supernatant was discarded.” left out

[5] = target: T3, mouse B7H4 on the cell surface; assay: FACS, CHOK1/m B7H4 cells; remark: listed apart in the source
Experimental: as §1, with “Then 100 μL of a fluorescent secondary antibody (Alexa Fluor 488-conjugated AffiniPure Goat Anti-Human IgG, Fcγ Fragment Specific, Jackson, #109-545-098, 1:500 diluted) was added to each well. The plate was incubated away from light at 4° C. for 1 h. The cells in each well were washed twice with 100 μL of pre-cooled PBS containing 2% BSA, and centrifuged at 500 g at 4° C. for 5 minutes, and then the supernatant was discarded.” left out

[6] = target: T1, human B7H4 on the cell surface; assay: FACS on SK-BR-3 cells, expression supernatant at 1 X and 10X

B1: PR002410 (antibody, human IgG1, kappa)
heavy: QVQLVQSGAEVKKPGSSMRVSCKASEDTFSSYAISWVRQAPGQGLEWMGGTAPIFGTTNYAQKFQGRVTITADKSTSTAYMELSSLRSEDTAVYYCARGGPYFDYWGQGTLVTVSS[human IgG1 constant region not written out]
light: EIVMTQSPASLSVSPGERATLSCRASQSVSSNLAWYQQKPGQAPRLLIYGASTRATGIPARVSGGGSGTEFTLTISSLQSEDFAVYYCQQYKNWPFTFGPGTKLEIKRTVAAPSVFIFPPSDEQLKSGTASVVCLLNNFYPREAKVQWKVDNALQSGNSQESVTEQDSKDSTYSLSSTLTLSKADYEKHKVYACEVTHQGLSSPVTKSFNRGEC
notes: PTM variant of PR002037 (L: C87Y), human IgG1
- EC50 [1]: 1.87 nM
- Maximum MFI [1]: 245000 MFI
- EC50 [2]: 2.08 nM
- Maximum MFI [2]: 1.86e+06 MFI
- EC50 [3]: 2.38 nM
- Maximum MFI [3]: 1.55e+06 MFI

B4: PR001476 (antibody, human IgG1, kappa)
heavy: QVQLVESGGGVVQPGRSLRLSCAASGFTFRSFGMHWVRQAPGKGLEWVAVISYDGSNEYYADSVKGRFIISRDNSKDTLYLQMNSLRAGDTAVYYCAKGGGLRWYFAYWGQGTLVTVSS[human IgG1 constant region not written out]
light: EIVMTQSPATLSVSPGERATLSCRASQSISSNLGWYQQKPGQAPRLLIYGASTRATGIPARFSGSGSGTEFTLTISSLQSEDFAVYYCQQYNSWPPLTFGGGTKVEIKRTVAAPSVFIFPPSDEQLKSGTASVVCLLNNFYPREAKVQWKVDNALQSGNSQESVTEQDSKDSTYSLSSTLTLSKADYEKHKVYACEVTHQGLSSPVTKSFNRGEC
notes: Initial fully human antibody from Harbour H2L2 mice, human IgG1; also called 80C8-2E9; RP001476
- EC50 [4]: 0.886 nM
- Maximum MFI [4]: 972000 MFI
- EC50 [2]: 1.1 nM
- Maximum MFI [2]: 1.82e+06 MFI
- EC50 [3]: 3.61 nM
- Maximum MFI [3]: 353000 MFI
- EC50 [5]: 3.02 nM
- Maximum MFI [5]: 230000 MFI

The remaining lines, values ahead:

- Maximum MFI (CD3 on human T cells): 44400
B2: PR003001 (bispecific antibody, human IgG1, kappa, L234A L235A)
chain: QVQLVESGGGVVQPGRSLRLSCAASGFTFRSFGMHWVRQAPGKGLEWVAVISYDGSNEYYADSVKGRFIISRDNSKDTLYLQMNSLRAGDTAVYYCAKGGGLRWYFAYWGQGTLVTVSSASTKGPSVFPLAPSSKSTSGGTAALGCLVKDYFPEPVTVSWNSGALTSGVHTFPAVLQSSGLYSLSSVVTVPSSSLGTQTYICNVNHKPSNTKVDKKVEPKSCGGGGSQAVVTQEPSLTVSPGGTVTLTCRSSTGAVTTSNYANWVQQKPGQAPRGLIGGTNKRAPWTPARFSGSLLGDKAALTLLGAQPEDEAEYFCALWYSNLWVFGGGTKLTVLGGGQSGQGGSGGGGSEVQLVESGGGLVQPGGSLKLSCAASGFTFNTYAMNWVRQASGKGLEWVGRIRSKYNNYATYYADSVKDRFTISRDDSKSTLYLQMNSLKTEDTAVYYCVRHGNFGNSYVSWFAYWGQGTLVTVSSASEPKSSDKTHTCPPCPAPEAAGGPSVFLFPPKPKDTLMISRTPEVTCVVVDVSHEDPEVKFNWYVDGVEVHNAKTKPREEQYNSTYRVVSVLTVLHQDWLNGKEYKCKVSNKALGAPIEKTISKAKGQPREPQVYTLPPCREEMTKNQVSLWCLVKGFYPSDIAVEWESNGQPENNYKTTPPVLDSDGSFFLYSKLTVDKSRWQQGNVFSCSVMHEALHNHYTQKSLSLSPGK
heavy: QVQLVESGGGVVQPGRSLRLSCAASGFTFRSFGMHWVRQAPGKGLEWVAVISYDGSNEYYADSVKGRFIISRDNSKDTLYLQMNSLRAGDTAVYYCAKGGGLRWYFAYWGQGTLVTVSSASTKGPSVFPLAPSSKSTSGGTAALGCLVKDYFPEPVTVSWNSGALTSGVHTFPAVLQSSGLYSLSSVVTVPSSSLGTQTYICNVNHKPSNTKVDKKVEPKSCDKTHTCPPCPAPEAAGGPSVFLFPPKPKDTLMISRTPEVTCVVVDVSHEDPEVKFNWYVDGVEVHNAKTKPREEQYNSTYRVVSVLTVLHQDWLNGKEYKCKVSNKALGAPIEKTISKAKGQPREPQVCTLPPSREEMTKNQVSLSCAVKGFYPSDIAVEWESNGQPENNYKTTPPVLDSDGSFFLVSKLTVDKSRWQQGNVFSCSVMHEALHNHYTQKSLSLSPGK
light: B4 light
notes: B7H4 x CD3, 2+1 asymmetric structure (structure 7): CD3 scFv(VL-VH) from PR000627, two B7H4 Fabs from PR001476

- Maximum MFI (CD3 on human T cells): 39400
B3: PR003008 (bispecific antibody, human IgG1, kappa, L234A L235A)
chain: QVQLVESGGGVVQPGRSLRLSCAASGFTFRSFGMHWVRQAPGKGLEWVAVISYDGSNEYYADSVKGRFIISRDNSKDTLYLQMNSLRAGDTAVYYCAKGGGLRWYFAYWGQGTLVTVSSASTKGPSVFPLAPSSKSTSGGTAALGCLVKDYFPEPVTVSWNSGALTSGVHTFPAVLQSSGLYSLSSVVTVPSSSLGTQTYICNVNHKPSNTKVDKKVEPKSCDKTHTCPPCPAPEAAGGPSVFLFPPKPKDTLMISRTPEVTCVVVDVSHEDPEVKFNWYVDGVEVHNAKTKPREEQYNSTYRVVSVLTVLHQDWLNGKEYKCKVSNKALGAPIEKTISKAKGQPREPQVYTLPPCREEMTKNQVSLWCLVKGFYPSDIAVEWESNGQPENNYKTTPPVLDSDGSFFLYSKLTVDKSRWQQGNVFSCSVMHEALHNHYTQKSLSLSPGGGGGSQAVVTQEPSLTVSPGGTVTLTCRSSTGAVTTSNYANWVQQKPGQAPRGLIGGTNKRAPWTPARFSGSLLGDKAALTLLGAQPEDEAEYFCALWYSNLWVFGGGTKLTVLGGGQSGQGGSGGGGSEVQLVESGGGLVQPGGSLKLSCAASGFTFNTYAMNWVRQASGKGLEWVGRIRSKYNNYATYYADSVKDRFTISRDDSKSTLYLQMNSLKTEDTAVYYCVRHGNFGNSYVSWFAYWGQGTLVTVSS
heavy: B2 heavy
light: B4 light
notes: B7H4 x CD3, 2+1 asymmetric structure (structure 9): CD3 scFv(VL-VH) from PR000627, two B7H4 Fabs from PR001476

- binding result [6]: binds
B5: PR002411 (antibody, human IgG1, kappa)
heavy chain: QVQLVESGGGVVQPGRSLRLSCAASGFTFRSFGMHWVRQAPGKGLEWVAVISYDGSNEYYADSVKGRFIISRDNSKDTLYLQMNSLRAGDTAVYYCAKGGGLRWYFAYWGQGTLVTVSSASTKGPSVFPLAPSSKSTSGGTAALGCLVKDYFPEPVTVSWNSGALTSGVHTFPAVLQSSGLYSLSSVVTVPSSSLGTQTYICNVNHKPSNTKVDKKV[human IgG1 Fc with changes not written out]
light chain: B4 light
notes: also called PR002411 supernatant
